Some of the results follow.
Each sequence was assayed against T1, OsWOX13 (Oryza sativa, UniProt Q5QMM3 1-267) (assay: protein-binding microarray (RPBM); PBS, 2% BSA, 51.3 ng/ul salmon testes DNA, 50 uM zinc acetate, 200 nM TF, 25 C, 1 h; high values mean tight binding). Details: protein: recombinant; tags: N-terminal polyhistidine and DsRed monomer fusion (pET32a); label: CyDye5-dUTP incorporated in the synthesized complementary strand; 3' TTTTT single-stranded linker to array surface; dsDNA, one strand shown.
T1 sequence: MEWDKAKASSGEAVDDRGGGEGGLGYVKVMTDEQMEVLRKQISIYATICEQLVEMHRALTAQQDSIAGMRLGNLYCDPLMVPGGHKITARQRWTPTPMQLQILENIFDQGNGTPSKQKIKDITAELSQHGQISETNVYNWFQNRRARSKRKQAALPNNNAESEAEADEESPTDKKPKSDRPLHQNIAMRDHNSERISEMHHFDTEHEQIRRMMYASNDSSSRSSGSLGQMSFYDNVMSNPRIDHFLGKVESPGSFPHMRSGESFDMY
Procedure, shortened: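 Binding signal here means per-feature fluorescence intensity in arbitrary units. The values were read on an Axon 4000B scanner after a custom Agilent array, double-stranded by primer extension with Cy5-dUTP, was incubated with 200 nM protein at 25 °C for 1 h in PBS with 2% BSA, salmon testes DNA and 50 µM zinc acetate, then washed. The proteins were transcription factors with an N-terminal polyhistidine tag and DsRed, expressed in E. coli BL21-CodonPlus and purified on Ni–NTA.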
“GATAAATTACGATAATACCCCTATACGAATTATTATCTCTCGGAGTCACCTAGTGCAG” was tested, and the binding signal was 12900 fluorescence intensity (a.u.). In the case of “ATAGCTATATCAATCTAGAATTGGATTAGATATATCTCGACGGAGTCACCTAGTGCAG”, the binding signal is reported as 6040 fluorescence intensity (a.u.). For “TAAACTGGTTATCAATTAGTAGTTGCTACTCCGAACAACACGGAGTCACCTAGTGCAG”, the binding signal was 8720 fluorescence intensity (a.u.). With “TGTGATGAATTGAGCGAACCAGCAGGGCTTCGCCGCTCCCCGGAGTCACCTAGTGCAG” the binding signal was 5470 fluorescence intensity (a.u.). With “ACGGTCTATCCAATCAACAATTATCCTAATTATCCTAACACGGAGTCACCTAGTGCAG” the binding signal was 13900 fluorescence intensity (a.u.). “AGATTAATTAGGCTCAACCATTTTCTCAATGGTTGATGAGCGGAGTCACCTAGTGCAG” was tested, and the binding signal was 19100 fluorescence intensity (a.u.). In the case of “GTCTCTTTGAAATTGAAATTGGGCCTCATTTAGTCTGTTACGGAGTCACCTAGTGCAG”, the binding signal is reported as 3500 fluorescence intensity (a.u.). In the case of “AAGATTGGATTCGCTGCAATACCATCACTAAACTCGGCTTCGGAGTCACCTAGTGCAG”, the binding signal is reported as 12800 fluorescence intensity (a.u.). For “CGAAATTAATCGCGACAATAAATTCAGACAAAACCTTGCTCGGAGTCACCTAGTGCAG”, the binding signal was 24700 fluorescence intensity (a.u.). In the case of “AAATAATCAAGATAGAATCTGTTAAGTAATTACATCACTACGGAGTCACCTAGTGCAG”, the binding signal is reported as 7860 fluorescence intensity (a.u.). For “AATAATTTACAGGAAAGACTAAAGAATACTCGGAAAACAACGGAGTCACCTAGTGCAG”, the binding signal was 9550 fluorescence intensity (a.u.). In the case of “TCAAATTTAATTCAGAGTTACACTAGGTGAACTCACAATACGGAGTCACCTAGTGCAG”, the binding signal is reported as 6640 fluorescence intensity (a.u.). In the case of “AGTTCAATTTTCTTATCTAAACAAAATTTGTTCAAAATCACGGAGTCACCTAGTGCAG”, the binding signal is reported as 4710 fluorescence intensity (a.u.). In the case of “ACCGTAACCTGATTGATAATTTACTGATTTACTCATTGTTCGGAGTCACCTAGTGCAG”, the binding signal is reported as 64700 fluorescence intensity (a.u.). “GTTGTCGCACACATAATTATCATCCATCGATCCATCCATACGGAGTCACCTAGTGCAG” was tested, and the binding signal was 3600 fluorescence intensity (a.u.). With “ATGATTTCATGATTCTGCATATCTCGCCCATTAGCTGTCACGGAGTCACCTAGTGCAG” the binding signal was 3400 fluorescence intensity (a.u.). With “GGTACAAAATTGTGATTGATTTCATGTAAATAAGATGTTCCGGAGTCACCTAGTGCAG” the binding signal was 40300 fluorescence intensity (a.u.). In the case of “GTAAGATTTAAATTTACACCCACTTATACTCCACTTACATCGGAGTCACCTAGTGCAG”, the binding signal is reported as 17400 fluorescence intensity (a.u.). For “ATGATTATTTAAAACATTTAATTTATCTATGATCAAGTAGCGGAGTCACCTAGTGCAG”, the binding signal was 35600 fluorescence intensity (a.u.). In the case of “GGAAATTTATTCCATTAAATTGCCTGGCAATTTTAAGCTGCGGAGTCACCTAGTGCAG”, the binding signal is reported as 26300 fluorescence intensity (a.u.). For “GAAATTGACAACAAAAGTAAACACGCCCGTAGTTTGAAGTCGGAGTCACCTAGTGCAG”, the binding signal was 21200 fluorescence intensity (a.u.). In the case of “ATCTACTGATTTACAACCTCCTTAATTAACAAGCACGGGTCGGAGTCACCTAGTGCAG”, the binding signal is reported as 29500 fluorescence intensity (a.u.). In the case of “TATATATATTTTGTTCCAATCACATTTCACATACCACAGTCGGAGTCACCTAGTGCAG”, the binding signal is reported as 4990 fluorescence intensity (a.u.). In the case of “AGTATAAAATATAATAGATTGACAGAGAACAAACTAGTAACGGAGTCACCTAGTGCAG”, the binding signal is reported as 17900 fluorescence intensity (a.u.). For “TGTTACATATAATGAAATTAATTTGGTATTGTAGATGTTGCGGAGTCACCTAGTGCAG”, the binding signal was 13600 fluorescence intensity (a.u.). “CCAAATAGGAAAATTTCCTATAGGATTTAAATCCTATGAACGGAGTCACCTAGTGCAG” was tested, and the binding signal was 3750 fluorescence intensity (a.u.). For “TTCATTTGATTTAGGATTTAGGATTAAGTTCATTTGAATCCGGAGTCACCTAGTGCAG”, the binding signal was 7200 fluorescence intensity (a.u.). With “ATTTAAATTAAATAATTAGTAATTCTTTGAGAAGATTAACCGGAGTCACCTAGTGCAG” the binding signal was 33900 fluorescence intensity (a.u.). With “GAAAATATAATTTGTTGTATTCTGTTGTATTGTAGTGACTCGGAGTCACCTAGTGCAG” the binding signal was 5890 fluorescence intensity (a.u.). “GAGCGAGTACAATAGCAGTCTACAAGTAAGTTGTAATCACCGGAGTCACCTAGTGCAG” was tested, and the binding signal was 3730 fluorescence intensity (a.u.). For “AATTTAAGTAATTATTAATTCTTTTCCTATCATTTGATTCCGGAGTCACCTAGTGCAG”, the binding signal was 4780 fluorescence intensity (a.u.). With “ACGGTTTGTTAATTAATTATGTTAACCCCTGTTATATTCACGGAGTCACCTAGTGCAG” the binding signal was 13800 fluorescence intensity (a.u.). For “ACCGCCATCATCAACCAATCAACGTACAGGGCCGGCGCCGCGGAGTCACCTAGTGCAG”, the binding signal was 31000 fluorescence intensity (a.u.). With “ATAACATTAAATTAATTCTATTACATCTAACATTACATATCGGAGTCACCTAGTGCAG” the binding signal was 12900 fluorescence intensity (a.u.). With “TTTAATTATCTTCTCCTCACTATCCCCTCTCTCTCTCTCCCGGAGTCACCTAGTGCAG” the binding signal was 24100 fluorescence intensity (a.u.). “GAGTGATGAGCAGCTAATAGGTGGACACAATGGCTATTAACGGAGTCACCTAGTGCAG” was tested, and the binding signal was 4790 fluorescence intensity (a.u.). With “CATAAATTTTCCGTGCCAACTTTGATCATCCGTTTTATTTCGGAGTCACCTAGTGCAG” the binding signal was 5660 fluorescence intensity (a.u.). In the case of “GATGTGATAATTTGGACCTTCAAGTCCTGTTTGTTCAGTGCGGAGTCACCTAGTGCAG”, the binding signal is reported as 5790 fluorescence intensity (a.u.). With “GCTAATCTGACAAATGAAACAGCAGGAGCACAGCTGCGTTCGGAGTCACCTAGTGCAG” the binding signal was 3360 fluorescence intensity (a.u.). With “TAAATGTCATTTTGTCAATTACTTAACACCGTTAATTTCACGGAGTCACCTAGTGCAG” the binding signal was 20300 fluorescence intensity (a.u.). With “TTCAAATTAAGCTGCTTTAGATTATAATCTGAAGCTGGGCCGGAGTCACCTAGTGCAG” the binding signal was 17800 fluorescence intensity (a.u.). In the case of “GTTCAATCACCTACTCCCTCTTCCTCCTACCCAAGTCAGCCGGAGTCACCTAGTGCAG”, the binding signal is reported as 14300 fluorescence intensity (a.u.).
